# The supplement of paper PMC7726561
# Over roughly 1,400 sequences, “thermal melting temperature (Tm) of peptide-HLA complex” has its median near 60; the lowest 2% begin near 45. The list shows a part of the results.
# Molecular target: HLA-B*07:02
# Assay: thermal melting temperature (Tm) of peptide-HLA complex; higher = more thermostable pHLA complex
# Details: C1R-B*07:02
# 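Also: cell lysates heated 10 min at 37–73 °C, remaining pHLA pulled down with pan-class I antibody, peptides quantified by DIA-MS versus 37 °C, Tm where half the complex is lost.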
row,Sequence,thermal melting temperature [°C]
1,LPRGFGSLPAL,61
2,IPSIRNGIL,62.8
3,KPLYTAEPVTL,58.5
4,IPLKGSTL,46
5,RPAAIPIEI,62.5
6,RPSLNIATVL,60.8
7,NPRDPPSWSV,55.5
8,MPSSRLWSL,60.9
9,SPHPGLLL,61
10,TPRSTVGVAV,56
11,MPYSNGRPAL,58.2
12,GPRPAAIAV,58.8
13,FPHVQTDVL,62.6
14,SPRENILVSL,62.3
15,LPEENYQVL,61.9
16,RPTLPVKSL,60
17,APLLRVAL,63
18,SPQGRVMTI,56.9
19,SPRPALPALLV,59.4

row,Sequence,thermal melting temperature [°C]
1,PAERKQAL,61.2
2,SPAEWGQRL,55.6
3,HPYGLGPPSL,55.2
4,SPSPERSLLL,60.8
5,SPANPAHIL,66.3
6,HPRDPNLLL,61
7,IPRPWSSGL,61.2
8,GPHIASVTL,59.3
9,SPGQRAVLL,59.2
10,RPINITSL,60.7
11,LPRAGLEL,62.3
12,SPRPGAPPAAI,58.1
13,IPHHAPVLL,45.8
14,LPRTPSYSI,62.1
15,QPVAGRPSL,55.8
16,YPQDLPRPL,60.7
17,RPSTSTAVF,58.4
18,QPASFAIRL,54
19,APAPRPSL,58.1

row,Sequence,thermal melting temperature [°C]
1,APDVGRMGI,58.2
2,KPRPSVEPA,62.6
3,PQQPHPPL,47.4
4,SPTPRIKAEL,46.2
5,APRKGSFSAL,61.1
6,VPRERVDHL,54.7
7,SPHTPSTHF,46
8,RPQPVLPLL,59.8
9,SPASFLRSL,40.6
10,TPQMPTQAM,59.7
11,RPKDPNNLL,59.1
12,SPKLGGIGF,55.5
13,IPYPRPIHL,61.1
14,LPKQPPLAL,63.5
15,KPINVRVTTM,56
16,APLPGRAIL,63.3
17,SPAGNSPAPL,56.7
18,RPSQNNTIGL,54
